The other results are listed elsewhere or left out.
What was measured:
Assay in all cases: glycan array binding signal (z-score within array); higher = stronger binding
Conditions in all cases: glycan notation: IUPAC condensed, linker removed
Fuc(a1-2)Gal = molecular target: Fuc(a1-2)Gal
In short: (§1)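 Columns mapping to the same glycan were averaged after glycan names were converted to IUPAC-condensed notation. The data come from 3228 arrays in the Consortium for Functional Glycomics database, limited to those with an available protein sequence. Binding is reported as a within-array Z-score averaged across arrays of one protein sequence and across linkers.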

Fuc(a1-2)Gal(b1-3)GalNAc = molecular target: Fuc(a1-2)Gal(b1-3)GalNAc
In short: as §1

[1] = molecular target: Fuc(a1-2)Gal(b1-3)GalNAc(a1-3)[Fuc(a1-2)]Gal(b1-4)Glc
In short: as §1

[2] = molecular target: Fuc(a1-2)Gal(b1-3)GalNAc(a1-3)[Fuc(a1-2)]Gal(b1-4)GlcNAc
In short: as §1

[3] = molecular target: Fuc(a1-2)Gal(b1-3)GalNAc(b1-3)Gal
In short: as §1

[4] = molecular target: Fuc(a1-2)Gal(b1-3)GalNAc(b1-3)Gal(a1-4)Gal(b1-4)Glc
In short: as §1

[5] = molecular target: Fuc(a1-2)Gal(b1-3)GalNAc(b1-4)[Neu5Ac(a2-3)]Gal(b1-4)Glc
In short: as §1

Fuc(a1-2)Gal(b1-3)GlcNAc = molecular target: Fuc(a1-2)Gal(b1-3)GlcNAc
In short: as §1

[6] = molecular target: Fuc(a1-2)Gal(b1-3)GlcNAc(b1-2)Man(a1-3)[Fuc(a1-2)Gal(b1-3)GlcNAc(b1-2)Man(a1-6)]Man(b1-4)GlcNAc(b1-4)GlcNAc
In short: as §1

[7] = molecular target: Fuc(a1-2)Gal(b1-3)GlcNAc(b1-2)Man(a1-3)[Fuc(a1-2)Gal(b1-3)GlcNAc(b1-2)Man(a1-6)]Man(b1-4)GlcNAc(b1-4)[Fuc(a1-6)]GlcNAc
In short: as §1

[8] = molecular target: Fuc(a1-2)Gal(b1-3)GlcNAc(b1-3)Gal(b1-4)Glc
In short: as §1

[9] = molecular target: Fuc(a1-2)Gal(b1-3)GlcNAc(b1-3)GalNAc
In short: as §1

[10] = molecular target: Fuc(a1-2)Gal(b1-3)GlcNAc(b1-3)[Fuc(a1-2)Gal(b1-3)GlcNAc(b1-6)]GalNAc
In short: as §1

[11] = molecular target: Fuc(a1-2)Gal(b1-3)GlcNAc(b1-3)[Fuc(a1-3)[Gal(b1-4)]GlcNAc(b1-6)]Gal(b1-4)Glc
In short: as §1

[12] = molecular target: Fuc(a1-2)Gal(b1-3)GlcNAc(b1-3)[Gal(b1-4)GlcNAc(b1-6)]Gal(b1-4)Glc
In short: as §1

[13] = molecular target: Fuc(a1-2)Gal(b1-3)GlcNAc(b1-3)[Neu5Ac(a2-6)Gal(b1-4)GlcNAc(b1-6)]Gal(b1-4)Glc
In short: as §1

[14] = molecular target: Fuc(a1-2)Gal(b1-3)GlcNAc6S
In short: as §1

[15] = molecular target: Fuc(a1-2)Gal(b1-3)[Fuc(a1-4)]GlcNAc
In short: as §1

[16] = molecular target: Fuc(a1-2)Gal(b1-3)[Fuc(a1-4)]GlcNAc(b1-2)Man(a1-3)[Fuc(a1-2)Gal(b1-3)[Fuc(a1-4)]GlcNAc(b1-2)Man(a1-3)]Man(b1-4)GlcNAc(b1-4)GlcNAc
In short: as §1

[17] = molecular target: Fuc(a1-2)Gal(b1-3)[Fuc(a1-4)]GlcNAc(b1-2)Man(a1-3)[Fuc(a1-2)Gal(b1-3)[Fuc(a1-4)]GlcNAc(b1-2)Man(a1-6)]Man(b1-4)GlcNAc(b1-4)GlcNAc
In short: as §1

[18] = molecular target: Fuc(a1-2)Gal(b1-3)[Fuc(a1-4)]GlcNAc(b1-2)Man(a1-3)[Fuc(a1-2)Gal(b1-3)[Fuc(a1-4)]GlcNAc(b1-2)Man(a1-6)]Man(b1-4)GlcNAc(b1-4)[Fuc(a1-6)]GlcNAc(b1-4)[Fuc(a1-6)]GlcNAc
In short: as §1

[19] = molecular target: Fuc(a1-2)Gal(b1-3)[Fuc(a1-4)]GlcNAc(b1-3)[Fuc(a1-3)[Gal(b1-4)]GlcNAc(b1-6)]Gal(b1-4)Glc
In short: as §1

[20] = molecular target: Fuc(a1-2)Gal(b1-3)[Fuc(a1-4)]GlcNAc(b1-3)[Gal(b1-4)GlcNAc(b1-6)]Gal(b1-4)Glc
In short: as §1

[21] = molecular target: Fuc(a1-2)Gal(b1-4)Fuc(a1-3)]GlcNAc(b1-2)Man(a1-3)[Fuc(a1-2)Gal(b1-4)[Fuc(a1-3)]GlcNAc(b1-2)Man(a1-6)]Man(b1-4)GlcNAc(b1-4)GlcNAc
In short: as §1

Fuc(a1-2)Gal(b1-4)Glc = molecular target: Fuc(a1-2)Gal(b1-4)Glc
In short: as §1

Fuc(a1-2)Gal(b1-4)Glc6S = molecular target: Fuc(a1-2)Gal(b1-4)Glc6S
In short: as §1

Fuc(a1-2)Gal(b1-4)GlcNAc = molecular target: Fuc(a1-2)Gal(b1-4)GlcNAc
In short: as §1

[22] = molecular target: Fuc(a1-2)Gal(b1-4)GlcNAc(b1-2)Man
In short: as §1

[23] = molecular target: Fuc(a1-2)Gal(b1-4)GlcNAc(b1-2)Man(a1-3)[Fuc(a1-2)Gal(b1-4)GlcNAc(b1-2)Man(a1-6)]Man(b1-4)GlcNAc(b1-4)GlcNAc
In short: as §1

[24] = molecular target: Fuc(a1-2)Gal(b1-4)GlcNAc(b1-2)Man(a1-3)[Fuc(a1-2)Gal(b1-4)GlcNAc(b1-2)Man(a1-6)]Man(b1-4)GlcNAc(b1-4)[Fuc(a1-6)]GlcNAc
In short: as §1

[25] = molecular target: Fuc(a1-2)Gal(b1-4)GlcNAc(b1-2)[Fuc(a1-2)Gal(b1-4)GlcNAc(b1-4)]Man(a1-3)[Fuc(a1-2)Gal(b1-4)GlcNAc(b1-2)Man(a1-6)]Man(b1-4)GlcNAc(b1-4)GlcNAc
In short: as §1

[26] = molecular target: Fuc(a1-2)Gal(b1-4)GlcNAc(b1-3)Gal(b1-4)GlcNAc
In short: as §1

[27] = molecular target: Fuc(a1-2)Gal(b1-4)GlcNAc(b1-3)Gal(b1-4)GlcNAc(b1-2)Man(a1-3)[Fuc(a1-2)Gal(b1-4)GlcNAc(b1-3)Gal(b1-4)GlcNAc(b1-2)Man(a1-6)]Man(b1-4)GlcNAc(b1-4)GlcNAc
In short: as §1

[28] = molecular target: Fuc(a1-2)Gal(b1-4)GlcNAc(b1-3)Gal(b1-4)GlcNAc(b1-3)Gal(b1-4)GlcNAc
In short: as §1

[29] = molecular target: Fuc(a1-2)Gal(b1-4)GlcNAc(b1-3)GalNAc
In short: as §1

[30] = molecular target: Fuc(a1-2)Gal(b1-4)GlcNAc(b1-3)[Fuc(a1-2)Gal(b1-4)GlcNAc(b1-6)]GalNAc
In short: as §1

[31] = molecular target: Fuc(a1-2)Gal(b1-4)GlcNAc(b1-3)[Fuc(a1-3)[Gal(b1-4)]GlcNAc(b1-6)]Gal(b1-4)Glc
In short: as §1

B1: MAL-II (Maackia amurensis), P93248 (protein)
chain: ATSNSKPTQVLLATFLTFFFLLLNNVNSSDELSFTINNFVPNEADLLFQGEASVSSTGVLQLTRVENGQPQQYSVGRALYAAPVRIWDNTTGSVASFSTSFTFVVKAPNPTITSDGLAFFLAPPDSQIPSGRVSKYLGLFNNSNSDSSNQIVAVEFDTYFGHSYDPWDPNYRHIGIDVNGIESIKTVQWDWINGGVAFATITYLAPNKTLIASLVYPSNQTSFIVAASVDLKEILPEWVRVGFSAATGYPTQVETHDVLSWSFTSTLEANSDAATENNVHIARYTA
glycan array binding signal (z-score) (Fuc(a1-2)Gal): -0.232
glycan array binding signal (z-score) (Fuc(a1-2)Gal(b1-3)GalNAc): -0.226
glycan array binding signal (z-score) [1]: -0.134
glycan array binding signal (z-score) [2]: -0.182
glycan array binding signal (z-score) [3]: -0.131
glycan array binding signal (z-score) [4]: -0.153
glycan array binding signal (z-score) [5]: -0.232
glycan array binding signal (z-score) (Fuc(a1-2)Gal(b1-3)GlcNAc): -0.075
glycan array binding signal (z-score) [6]: -0.037
glycan array binding signal (z-score) [7]: -0.188
glycan array binding signal (z-score) [8]: -0.209
glycan array binding signal (z-score) [9]: -0.274
glycan array binding signal (z-score) [10]: -0.086
glycan array binding signal (z-score) [11]: -0.218
glycan array binding signal (z-score) [12]: -0.193
glycan array binding signal (z-score) [13]: -0.25
glycan array binding signal (z-score) [14]: -0.237
glycan array binding signal (z-score) [15]: -0.185
glycan array binding signal (z-score) [16]: -0.066
glycan array binding signal (z-score) [17]: -0.218
glycan array binding signal (z-score) [18]: -0.176
glycan array binding signal (z-score) [19]: -0.218
glycan array binding signal (z-score) [20]: -0.202
glycan array binding signal (z-score) [21]: 0.178
glycan array binding signal (z-score) (Fuc(a1-2)Gal(b1-4)Glc): -0.226
glycan array binding signal (z-score) (Fuc(a1-2)Gal(b1-4)Glc6S): -0.187
glycan array binding signal (z-score) (Fuc(a1-2)Gal(b1-4)GlcNAc): -0.176
glycan array binding signal (z-score) [22]: -0.227
glycan array binding signal (z-score) [23]: -0.185
glycan array binding signal (z-score) [24]: -0.213
glycan array binding signal (z-score) [25]: -0.117
glycan array binding signal (z-score) [26]: -0.237
glycan array binding signal (z-score) [27]: -0.038
glycan array binding signal (z-score) [28]: -0.208
glycan array binding signal (z-score) [29]: -0.148
glycan array binding signal (z-score) [30]: -0.202
glycan array binding signal (z-score) [31]: -0.204

Reference: the supplement of paper PMC8728848
